110 molecules from PubChem BioAssay AID488969 (Vanderbilt High Throughput Screening Facility, 2010) can be followed below.

SMILES strings stand for the structures. In all, about 110,000 compounds were measured (“z-score”: median about -0.1, highest 2% from about 2 on). The list shows a part of the results. The source made the active and inactive calls.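 Rule for the calls: active = z-score in the third read window above 3 or below -3; inactive = the rest.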

For this assay, the target named is Metabotropic glutamate receptor 8 (Rattus norvegicus) (UniProt P70579). In words: rat mGluR8 modulators via GIRK flux, primary screen, cell-based, thallium flux, HTS (AID 488969). Particulars: HEK293 rat mGluR8, GIRK (G protein-gated inwardly rectifying potassium channel) thallium flux, FluoZin2; at 10 µM; stronger effect = higher value; submaximal glutamate (EC20) added with thallium.
Sequence of UniProt P70579 (P70579 whole entry, looked up): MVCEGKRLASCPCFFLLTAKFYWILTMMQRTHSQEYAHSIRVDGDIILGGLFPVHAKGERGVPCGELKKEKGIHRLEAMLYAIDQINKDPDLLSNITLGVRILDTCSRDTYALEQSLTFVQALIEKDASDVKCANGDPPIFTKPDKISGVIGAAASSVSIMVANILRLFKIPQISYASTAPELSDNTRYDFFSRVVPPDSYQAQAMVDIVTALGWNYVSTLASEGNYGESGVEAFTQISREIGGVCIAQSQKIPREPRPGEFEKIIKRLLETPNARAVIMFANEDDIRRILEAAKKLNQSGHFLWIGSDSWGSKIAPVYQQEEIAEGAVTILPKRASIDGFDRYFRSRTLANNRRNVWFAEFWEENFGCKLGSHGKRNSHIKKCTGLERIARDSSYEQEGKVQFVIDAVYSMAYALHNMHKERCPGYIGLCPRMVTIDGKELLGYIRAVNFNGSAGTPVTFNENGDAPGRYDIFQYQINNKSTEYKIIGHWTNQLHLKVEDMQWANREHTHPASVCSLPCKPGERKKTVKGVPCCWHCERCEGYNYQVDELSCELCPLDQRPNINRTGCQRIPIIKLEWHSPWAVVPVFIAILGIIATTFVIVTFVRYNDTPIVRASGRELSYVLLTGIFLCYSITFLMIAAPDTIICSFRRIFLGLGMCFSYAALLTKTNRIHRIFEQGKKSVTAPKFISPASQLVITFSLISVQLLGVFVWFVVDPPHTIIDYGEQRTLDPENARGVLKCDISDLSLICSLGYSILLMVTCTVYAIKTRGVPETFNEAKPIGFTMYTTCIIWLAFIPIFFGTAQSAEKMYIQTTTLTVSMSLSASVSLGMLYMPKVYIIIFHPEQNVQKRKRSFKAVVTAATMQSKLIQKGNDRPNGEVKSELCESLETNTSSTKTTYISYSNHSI
The molecule `O=S(=O)(c1ccc(S(=O)(=O)N2CCN(Cc3ccccc3)CC2)cc1)N1CCOCC1` registered a z-score of -0.0128.

Consider `COc1ccccc1NC(=S)NCCc1ccccc1`, for which the z-score is -0.188.

Take `CC(C)CCOc1ncnc2c1sc1nc3c(cc12)CSC(C)(C)C3`: the z-score is -1.34.

`Cc1nc2ccccc2c2oc(C(=O)NCCN3CCN(C)CC3)cc12` displayed a z-score of -0.131.

On to `CC(Nc1cc(N2CCNCC2)ccc1[N+](=O)[O-])c1ccccc1` (stereo not given), for which the z-score stood at 1.15.

`O=C1CC(SCCc2nc3ccccc3[nH]2)C(=O)N1c1ccc(Cl)cc1` (stereo not given) displayed a z-score of -0.246.

Molecule `O=C(CSc1nnc(COc2ccccc2F)n1-c1ccccc1)NC1CCS(=O)(=O)C1` (stereo not given) registered a z-score of -0.055.

Turning to `O=C(Cc1ccccc1)Nc1nc2ccccc2[nH]1`, the z-score worked out at 1.95.

For the molecule `COc1cc2c(cc1NC(=O)CSc1nnc(COc3ccc(Cl)cc3)n1C)oc1ccccc12`, the z-score was -0.224.

As to `CS(=O)(=O)N(Cc1ccccc1)c1ccccc1C(=O)Nc1ccccc1C(=O)NCc1ccco1`, the z-score was -1.29.

On to `CCCCN(CC)C(=O)c1n[nH]c(=O)c2ccccc12`, for which the z-score was -0.164.

`N#CC(c1ccc(Cl)cc1)(c1ncc(C(F)(F)F)cc1Cl)N1CCOCC1` (stereo not given) registered a z-score of -0.37.

The molecule `CCN(CC)CCn1c(=S)[nH]c2cc3c(cc2c1=O)OCO3` displayed a z-score of -0.565.

Consider `COc1cc2c(cc1NC(=O)COC(=O)CNS(=O)(=O)c1ccc(C)cc1)oc1ccccc12`, for which the z-score was -0.495.

For the molecule `O=S(=O)(/N=C(/Nc1ccccc1)c1ccccc1)c1cccs1`, the z-score was -0.282.

`CN1CCN(c2ccccc2NC(=O)c2cccc(OCc3ccccc3)c2)CC1` returned a z-score of 0.877.

The molecule `CCC(Sc1nc2n[nH]c(C)c2c(=N)n1-c1cccc(Cl)c1)C(=O)NCCOC` (stereo not given) had a z-score of -0.708.

`O=C(C1CCCO1)N1CCN(C(=S)Nc2ccccc2C(F)(F)F)CC1` (stereo not given) showed a z-score of -0.171.

`CC(=O)Nc1cc2c(cc1NC(=O)c1cnccn1)OCCO2` came in with a z-score of -0.385.

In turn, `COc1ccc(CNS(=O)(=O)c2ccc3c(c2)CCN3C(=O)C2CC2)cc1` returned a z-score of 0.673.

As to `CCOc1ccccc1NC(=O)COC(=O)CSc1ccc(Cl)cc1`, the z-score came to 0.0724.

Consider `Cc1cccc(NC(=O)CCN2C(=O)C3C4C=CC(C4)C3C2=O)c1` (stereo not given), for which the z-score is -0.0459.

Take `CCOC(=O)c1cnc2cc(Cl)c(OC)cc2c1NCC1CCCO1` (stereo not given): the z-score is -0.264.

`Cc1ccc(OCC(=O)Nc2ccc(N(C)C)cc2)cc1` gave a z-score of 1.74.

In the case of `Cc1c(NC(=O)C(C)OC(=O)C(NC(=O)c2ccco2)C(C)C)c(=O)n(-c2ccccc2)n1C` (stereo not given), the z-score stood at 0.193.

The molecule `COC(=O)C1=C(C)N(Cc2ccc(C)cc2)C(=O)/C1=C\c1ccc(O)c(OC)c1` came in with a z-score of -0.73.

Regarding `CCOC(=O)c1c(NC(=O)CC2Nc3ccccc3NC2=O)sc(C)c1C` (stereo not given), the z-score is -0.035.

`COc1cc(/C=C2\SC(c3ccc(C)cc3)=NC2=O)cc(OC)c1OC` came in with a z-score of -1.62.

With `CC1CCCC(NC(=O)CSc2nccn2C)C1C` (stereo not given), the z-score worked out at 0.409.

The molecule `Cc1ccc(S(=O)(=O)NCCSc2nnnn2-c2cc(C)ccc2C)cc1` returned a z-score of 0.419.

`CC(=O)c1cccc(NC(=O)c2ccncc2)c1`: the z-score is -0.165.

`COc1ccccc1NC(=O)C1=C(C)Nc2nc(CCCO)nn2C1c1ccc2c(c1)OCO2` (stereo not given) registered a z-score of -0.459.

The molecule `FC(F)(F)c1cccc(Cn2nnnc2-c2cccc(C(F)(F)F)c2)c1` returned a z-score of -0.494.

Turning to `Cc1ccccc1C(=O)Nc1ccccc1-n1cccc1`, the z-score is -0.134.

`CC(=O)Nc1ccccc1NC(=O)c1cccc2ccccc12` returned a z-score of 0.207.

In turn, `CCCCn1c(O)c(N=NC(=O)c2ccncc2)c2cc(Br)ccc21` came in with a z-score of -0.148.

`COC(=O)c1sccc1NC(=O)c1ccc2c(c1)OCO2` returned a z-score of 0.134.

Regarding `CCC(C)n1c(SCC(=O)Nc2cc(C)on2)nc2ccccc2c1=O` (stereo not given), the z-score turned out to be 0.0932.

As for `NC(=O)C1(N2CCCCC2)CCN(C(=O)NC23CC4CC(CC(C4)C2)C3)CC1`, the z-score is -0.0737.

Molecule `Cc1ccc(Cn2ccc(NC(=O)c3cc(-c4ccc(F)cc4)on3)n2)cc1` gave a z-score of -0.132.

In turn, `Cc1ccccc1NC(=S)N(CCCN1CCOCC1)Cc1cccs1` yielded a z-score of -0.491.

Consider `Cc1ccc(/C=C/C(=O)Nc2nc3ccccc3[nH]2)cc1`, for which the z-score was -0.25.

For `Cc1cccc(NC(=S)NCC(c2cccnc2)N2CCOCC2)c1` (stereo not given), the z-score is -0.204.

The molecule `COc1cc(/C=C(/C#N)c2nc3ccccc3[nH]2)ccc1OC(=O)c1ccco1` displayed a z-score of -0.292.

`CCc1cc2c(=O)[nH]c(Cc3ccc(OC)cc3)nc2s1` yielded a z-score of 0.542.

Regarding `Cc1ccc(CNCC2CCCO2)s1` (stereo not given), the z-score was 0.217.

The molecule `O=c1oc2ccccc2c(NCc2ccccc2F)c1[N+](=O)[O-]` showed a z-score of -0.272.

`Cc1cc(=O)[nH]c(N/N=C/c2sccc2C)n1` returned a z-score of -0.132.

Molecule `Cc1cc(OC(C)C)nc(-c2ccccc2O)n1` showed a z-score of -0.023.

In turn, `Cc1ccc(Cn2nnc3c(=O)n(CC(=O)OCc4ccccc4)cnc32)cc1` displayed a z-score of -0.426.

Turning to `Cc1ccc(N2CC(C(=O)NCCc3ccc(S(N)(=O)=O)cc3)CC2=O)cc1` (stereo not given), the z-score was found to be 0.343.

In turn, `O=C(O)C1CC(=O)N(Cc2cccs2)C1` (stereo not given) registered a z-score of 0.254.

Consider `Cc1ccc(C(=O)COC(=O)c2ccc3c(c2)C(=O)N(c2cccc4ncccc24)C3=O)cc1C`, for which the z-score was 0.234.

In turn, `N#CC1=C(N)N(c2ccc(Oc3ccccc3)cc2)C(=O)C1` returned a z-score of 0.892.

For the molecule `N#CC1=C2SCN(Cc3ccccc3)CN2C(=O)CC1c1cccs1` (stereo not given), the z-score is 0.161.

Take `COc1ccc(C(OC(=O)c2ccco2)C(=O)NCc2ccc(C)cc2)cc1` (stereo not given): the z-score came to 1.17.

On to `COc1cc(OC)cc(C(=O)NC(=S)Nc2ccc(NC(=O)c3ccco3)cc2)c1`, for which the z-score is -0.0757.

Molecule `CCCOc1ccc(-c2nnn(CC(=O)N3CCC(C)CC3)n2)cc1` came in with a z-score of 0.081.

Molecule `CCc1ccc(N2CC(C(=O)NCc3ccco3)CC2=O)cc1` (stereo not given) gave a z-score of -0.1.

In turn, `COC(=O)c1ccc(OC(=O)C2CC(=O)N(c3cccc(C)c3)C2)cc1` (stereo not given) gave a z-score of -2.93.

Molecule `CC1CCN(c2nc3ccc(C(=O)N4CCN(Cc5ccccc5)CC4)cc3s2)CC1` registered a z-score of -0.00212.

`CCN(CC(=O)Nc1ccc2c(c1)OCCO2)S(=O)(=O)c1cccs1` had a z-score of 1.19.

Turning to `COc1ccc2c(c1)C1=NN(/C(C)=C\C(C)=O)C(c3ccccc3)C1CC2` (stereo not given), the z-score amounted to 0.197.

Molecule `CCN(CC)S(=O)(=O)c1ccc(S(=O)(=O)N2CCN(C(=O)c3ccco3)CC2)cc1` gave a z-score of 0.0412.

`Cc1cccc(-c2nsc(SCC(=O)NCc3ccc4c(c3)OCO4)n2)c1` gave a z-score of -0.0976.

Molecule `Cc1cc2cc(CNS(=O)(=O)c3ccccc3)ccc2n1C` came in with a z-score of -0.239.

Molecule `CCC12CN3CCN(CC(C3)/C1=N\NC(=O)c1ccc(C(C)(C)C)cc1)C2` showed a z-score of 0.0105.

In the case of `Brc1cc(Br)c2ncnc(N3CCCCC3)c2c1`, the z-score came to 0.0126.

Molecule `CCOc1ccc(N(CC(=O)NN=C2CCN(C)CC2)S(C)(=O)=O)cc1` had a z-score of -0.0704.

`CCOc1ccc(CN(C(=O)c2ccco2)C2CCS(=O)(=O)C2)cc1` (stereo not given) showed a z-score of 0.457.

The molecule `COc1ccccc1C(=O)CSc1n[nH]c(N)n1` returned a z-score of 0.413.

In turn, `C=CCNC(=O)C1=NOC(CNC(=O)c2c(-c3ccccc3Cl)noc2C)C1` (stereo not given) came in with a z-score of 0.0601.

`CC1c2[nH]c3ccccc3c2CCN1C(=O)Nc1ccccc1` (stereo not given) returned a z-score of -0.403.

`COc1ccc(NC(=O)CCNS(=O)(=O)c2ccc3c(c2)CCC(=O)N3)cc1` returned a z-score of -0.358.

Molecule `CC(C)(C)c1cc(CCC(=O)N2CCNCC2)c(C(C)(C)C)cc1O` yielded a z-score of 0.647.

For the molecule `O=C(NCc1ccccc1)c1ccc(CN(c2ccccn2)S(=O)(=O)c2ccccc2)cc1`, the z-score is -0.805.

Take `COc1ccc(-c2c3c(nc4sc5c(Cl)nc(C)nc5c24)CCC3)cc1`: the z-score is -0.2.

With `CCc1nnc(NC(=O)C2CCCN(S(=O)(=O)c3ccccc3)C2)s1` (stereo not given), the z-score was -0.526.

`O=C1C=C(NCc2ccco2)CC(c2ccc(Cl)cc2)C1` (stereo not given) had a z-score of 0.0824.

With `CN(C)CCNc1nc2c(c(=O)[nH]c(=O)n2C)n1CCCc1ccccc1`, the z-score is active: 3.35.

On to `Brc1ccc(-c2nnc3c4ccccc4nc(N4CCOCC4)n23)cc1`, for which the z-score was active: 4.42.

In the case of `O=C(CSc1ccc2c(c1)OCCO2)Nc1cccc(S(=O)(=O)N2CCCCC2)c1`, the z-score was -0.41.

`O=S(=O)(NCCOC12CC3CC(CC(C3)C1)C2)c1cccc2nsnc12` returned a z-score of 0.716.

`COc1ccc(-c2noc(CN3CCN(c4ccccc4)CC3)n2)cc1` showed a z-score of -0.17.

The molecule `CCOC(=O)C1=C(C)N(C)C(=O)NC1c1cccc(O)c1` (stereo not given) registered a z-score of -0.0984.

Take `Cc1ccc(C)c(NC(=O)CSc2nnc3n2CCCCC3)c1`: the z-score is 0.0204.

With `Cc1ccc(C2=NN3C(C2)c2ccccc2OC32C(=O)Nc3ccccc32)cc1` (stereo not given), the z-score is -0.148.

Take `COc1cc2[nH]c3c(Cl)ncnc3c2cc1OC`: the z-score came to 1.11.

`COc1ccc(C(=O)Nn2c(SCC(=O)c3ccc(Cl)cc3)nc3ccccc3c2=O)cc1` returned a z-score of -0.0199.

For the molecule `COc1ccc(Nc2cc(C)nc3nc(C)nn23)cc1Cl`, the z-score is -0.312.

Turning to `COCCOc1nc2c(c(=O)n(C)c(=O)n2C)n1CCc1ccccc1`, the z-score is -0.683.

As to `CCN(CC)c1ccc(C2NCC(c3ccc([N+](=O)[O-])cc3)O2)cc1` (stereo not given), the z-score was -0.335.

For the molecule `Cc1nc2nc(SCC(N)=O)[nH]c2cc1Br`, the z-score was determined as 0.124.

For the molecule `O=C1CCC2c3ccc4ccccc4c3CCN12` (stereo not given), the z-score was 0.219.

The molecule `Cc1cccc(OCC(=O)Nc2ccc(N3CCN(C(=O)c4ccccc4)CC3)cc2)c1` returned a z-score of -0.0735.

Molecule `Cc1cccc(C2N(c3ccc(F)cc3)C(=O)C3CCCN32)c1` (stereo not given) had a z-score of 0.485.

Molecule `Cc1cc(CC(=O)O)c(C)cc1CC(=O)O` returned a z-score of -1.04.

Molecule `O=C(COc1ccc(/C=N/NS(=O)(=O)c2ccccc2)cc1)NCCc1ccccc1` yielded a z-score of -0.376.

`O=c1c(Br)c(N2CCCC2)cnn1-c1ccccc1` came in with a z-score of -0.0475.

Molecule `COC(=O)c1ccccc1S(=O)(=O)NC(=O)c1ccccc1` showed a z-score of 0.16.

For `COc1ccc(-c2cc(C(F)(F)F)n3nc(C(=O)N4CCOCC4)nc3n2)cc1`, the z-score amounted to 0.098.

In turn, `O=C(Nc1cccc(Cl)c1)NC1(C(=O)NCc2cccs2)CCCCC1` showed a z-score of 0.225.

The molecule `O=C(Nc1ccccc1)C1CCCCC1` yielded a z-score of -0.0328.

In turn, `Nc1nc(CN2CCOCC2)cs1` gave a z-score of -0.301.

Consider `CCCCCCNS(=O)(=O)c1ccc(Cl)s1`, for which the z-score is -0.0263.

In the case of `CCOC(=O)c1cnc(SC)nc1Oc1cccc(NS(=O)(=O)c2ccc(Cl)cc2)c1`, the z-score came out at 0.294.

`CCCc1cc(-c2nc(-c3ccc(Cl)cc3)cs2)ccn1` yielded a z-score of -0.136.

With `O=C(O)CSC(=S)N1CCCCC1`, the z-score was 0.621.

With `COc1ccc(CN(C(=O)CN2C(=O)c3ccccc3S2(=O)=O)C(C(=O)NCC2CCCO2)c2ccncc2)cc1` (stereo not given), the z-score was -0.514.

As to `O=C(c1cc2ccccc2oc1=O)N1CCN(c2ncccn2)CC1`, the z-score turned out to be 0.00205.
